Measured values: the RNAGym collection of RNA variant scans (doi:10.7554/elife.90254)
Read counts are not given, so values of variants with three or more changes are uncertain.

B1: LINE1-full (parent)
chain: UACGUAGGUGGUUUUCCCCUGAUAGUGCUAAGGGGGCCUGGAAGUUUGGACUGGGCAGAGCUCAACACAGCGUGGCAAAGUGGCUGUGGCUAGACUGCCUCUCUGGAUUCCUCGUCACUCAGCAGGGCAUCUCUGAGAGAAAUGCC

Variants of: B1
Experiment: self-cleavage, relative activity (ratio to wild type); higher = more cleavage; in vitro, sequencing; the parent is a self-cleaving ribozyme

Variant	self-cleavage
UACGUAGGUGGUUUUCCCCUGAUAGUGCUAAGGGGGCCCGGAAGUUUGGACUGGGCAGAGCUCAACACAGCGUGGCAAAGUGGCUGUGGCUAGACUGCCUCUUUGGAUUCCUCGUCACUCGGCAGGGCAUCUCUGAGAGAAAUGCC [U39C C103U A121G]	1.53
UACGUAGGCGGUUUUCCCCUGAUAGUGCUAAGGGGGCCGGGAAGUUUGGACUGGGCAGAGCUCAACACAGCGUGGCAAAGUGGCUGUGGCUAGACUGCCUCUCUGGAUUCCUCGACACUCAGCAGGGCAUCUCUGAGGGAAAUGCC [U9C U39G U115A A138G]	0.77
UACGUAGGUGGUUUUCCCCUGAUAGUGCUAAGGGGGCCUGGAAGUUUGGACUGGGCAGAGCCCAACACAGCGUGGCAGAGUGGCUGUGGCUAGACUGCCUCUCUGGAUUCCUCGUCACUCAGCAGGGCAUCUCUGAGAGGGAUGCC [U62C A78G A140G A141G]	0.04
UACGUAGGUGGUUUUCCCCUGGUAGUGCUAAGGGGGCCUGGAAGAUUGGACUGGGCAGAGCUCAACACAGCGUGGCAAAGUGGCUGUGGCUAGACUGCCUCUCUGGAUUCCUCGUCACUCAGCUGGGCAUCUCUGAGAGAAAUGCC [A22G U45A A124U]	1.08
UACGUAGGUGGUUUUCCCCUGAUAGUGCUAAGGGGGCCUGGAAGUUCGGACUGGGCGGAGCUCAACACAGCGUGGCAAAGUGGCAGUGGCCUGACUGCCUCUCUGGAUUCCUCGUCACUCAGCAGGGCAUCUCUGAGAGAAAUGCC [U47C A57G U85A U91C A92U]	0
UACGCAGGUGGUUUUCCCCUGAUAGAGCUAAGGGGGCCUGGAAGUUUGGACUGGGCAGAGCUCAACACAGCGUGGCAAAGUAGCUGUGGCUAGACUGCCCCUCUGGAUUCCUCGUCACCCAGCAGGGCAUCUCUGAGAGAAAUGCC [U5C U26A G82A U100C U119C]	2.35
UACGUAGGUGGUCUUCCCCUGAUAGUGCUAGGGGGGCCUGGAAGUUUGGACUGGGCAGAGCUCAACACAGCGUGGCAAAGUGGCUGUGGCUAGGCUGCCUCUCUGGAUUCCUCGUCACUCAGCAGGGCAUCUCUGAGAGAAAUGCC [U13C A31G A94G]	0.62
UACGUAGGUGGUUUUCCCCUGAUAGUGCUAAGGGGGCCUUGAAGUUUGGACUGGGCAGUGCUCAACACAGCGCGGCAAAGUGGCUGUGGCUAGACUGCCUCUCUGGGUUCCUCGUCACUCAGCAGGGCAUCUCUGAGAGAAAUGCC [G40U A59U U73C A107G]	1.28
UACGUAGGUGGUUUUCCCCUGAUAGUGCUAAGGGGGCCUGGAAGUUUGGACAGGGCAGAGCUCAACACAGCGUGGCAAAGUGGCUGUGGCUAGACUGCCACUCUGGACUCCUCGUCACUCAGCAGGGCAUCUCUGAGAGAAAUGCC [U52A U100A U108C]	1.03
UACGUAGGUGGUUUUCCCUUGAUAGUGCUAAGGGGGCCUGGAAGUUUGGACUGGGCAGAGCUCAACACAGCGUGGCAAAGUGGCUGUGGCUAGACUGCCUCUCUGGAUUCCUCGUCACUCAGCAGGGCAUCUCUGUGAGAAGUGCC [C19U A136U A142G]	1.41
UACGUAGGUGGUUUUCCCCUGAUAGUGCUAAGGGGGCCUGGUAGUUUGGACUGGGCAGAGCCCAACACAGCGUGGCUAAGUGGCUGUGGCUAGACUGCCUCUCUGGAUUCCUCGUCACUCAGCAGGGCAUCUCUGAGAGAAAUGCC [A42U U62C A77U]	0.04
UACGUAGGUGGGUUUCCCCUGAUAGUGCUAAGGGGGCCUGGAAGUUAGGACUGGGCAGAGCCCAACACAGCGUGGCAAAGUGGCUGUGGCUAGACUGCCUCUCUGGAUUCCUCGUCACUCAGCAGGGCAUCUCUGAGAGAAAAGCC [U12G U47A U62C U143A]	0.04
UACGUAGGUGGUUUUCCCCUGAUAGUGCUAAGGGGGCCUGGAAGUUUGGACUGGGCAGAGCUCAACGCAGCGUGGCAAAGUGGCUGUGGCUAGACUGCCUCUCUGGAUUCCUCAUCACUCGGCAGGGCAUCUCUGGGAGAAAUGCC [A67G G114A A121G A136G]	0.97
UACGUAGGUGGUUUUCCCCUGACAGUGCUAAGGGGGCCUGGAAGUUUGGACUGGGCAGAGCUCAACACAGCGUGGCAUAGUGGCUGUGGCUAGACUGCCUCUCUGGAUUCCUCGUCACUCAGCAGGGCACCUCUGAGAGAAAUGCC [U23C A78U U130C]	1.65
UACGUAGGUGGUUUUCCCCUGAUAGUGCUAAGGGGGCCUGGAGGUUUGGACUGGGCAGAGCUCAACACAGCGUGGCAAAGUGGCUGUGGCUAGACUGCCUCUCUGGGCUCCUCGUCACUCAGCAGGGCAUCUCUGAGAGAAAUGCC [A43G A107G U108C]	0.92
UACGUAGGUGGCUUUCCCCUGAUAGUGCUAUGGGGGCCCGGAAGUUUGGACAGGGCAGAGCUCAACACAGCGUGGCAAAGUGGCUGUGGCUAGACUGCCUCUCUGGAUUCCUCGUCACUCAGCAGGGCAUCUCUGAGAGAAAUGCC [U12C A31U U39C U52A]	2.3
UACGUAGGUGGUGUUCCCCUGAUAGUGCUAAGGGGGCCUGGAAGUUUGGACUGGGCAGAGCUCAACACAGCGUGGCAAAGUGUCUGUGGCUAGACUGCAUCUCUGGAUUCCUCGUCACUCAGCAGGGCAUCUCUGAGAGAAAUGCC [U13G G83U C99A]	0.1
UACGUAGGCGGUUUUCCCCUGAUAGUGCUAAGGGGGCCUGGAAGUUUGGACUGGGCAGAGCUCAACACAGCGUGGCAAAGUGGCUGUGGCUAGGCUGCCUCUCUGGAUUCCUCGCCACUCAGCAGGGCAUCUCUGAGAGAAAUGCC [U9C A94G U115C]	0
UACGUAGGUGGUUUUCCCCCGAUAGUGCUAAGGGGGCCUGGAAAUUUGGACUGGGCAGAGCUCAACACAGCGUAGCAAAGUGGCUGUGGCUAGACUGCCUCCCUGGAUUCCUCGUCACUCAGCAGGGCAUCUCUGAGAGAAAUGCC [U20C G44A G74A U102C]	0.9
UACGUAGGUGGUUUUCCCCUGAUAGUGCUAAGGGGGCCUGGAAGUUUGGACUGGGCAGAGCUCAACACAGCGUGGCGAAGUGGCUGUGGCCGGACAGCCUCUCUGGAUUCCUCGUCACUCAGCAGGGCAUCUCUGAGAGAAAUGCC [A77G U91C A92G U96A]	0
